Assay results taken from PubChem BioAssay AID1159614 (National Center for Advancing Translational Sciences (NCATS), 2016).
Screen size: about 45,000 compounds; about 65 (0.1%) were called active. The call rests on the fitted dose curve; in most records, active means well fitted activation curve with a large enough effect; inconclusive means small, poorly fitted or top-dose-only effect; inactive means no such curve, though single readings can be large or run the other way. The list shows a part of the results.

These compounds were tested against Galactocerebrosidase (Homo sapiens) (UniProt P54803) (assay: A Novel Cell-Based Assay to Identify Small Molecules for B -Galactocerebrosidase). Settings: 145M-Twi-hGALC-G270D cells (Twitcher mouse brain line with human GALC G270D), HMU-beta-Gal fluorescence, 48 h; series mostly up to 57.5 µM; activation: at the top concentration.
Chain of UniProt P54803 (P54803 whole entry, looked up): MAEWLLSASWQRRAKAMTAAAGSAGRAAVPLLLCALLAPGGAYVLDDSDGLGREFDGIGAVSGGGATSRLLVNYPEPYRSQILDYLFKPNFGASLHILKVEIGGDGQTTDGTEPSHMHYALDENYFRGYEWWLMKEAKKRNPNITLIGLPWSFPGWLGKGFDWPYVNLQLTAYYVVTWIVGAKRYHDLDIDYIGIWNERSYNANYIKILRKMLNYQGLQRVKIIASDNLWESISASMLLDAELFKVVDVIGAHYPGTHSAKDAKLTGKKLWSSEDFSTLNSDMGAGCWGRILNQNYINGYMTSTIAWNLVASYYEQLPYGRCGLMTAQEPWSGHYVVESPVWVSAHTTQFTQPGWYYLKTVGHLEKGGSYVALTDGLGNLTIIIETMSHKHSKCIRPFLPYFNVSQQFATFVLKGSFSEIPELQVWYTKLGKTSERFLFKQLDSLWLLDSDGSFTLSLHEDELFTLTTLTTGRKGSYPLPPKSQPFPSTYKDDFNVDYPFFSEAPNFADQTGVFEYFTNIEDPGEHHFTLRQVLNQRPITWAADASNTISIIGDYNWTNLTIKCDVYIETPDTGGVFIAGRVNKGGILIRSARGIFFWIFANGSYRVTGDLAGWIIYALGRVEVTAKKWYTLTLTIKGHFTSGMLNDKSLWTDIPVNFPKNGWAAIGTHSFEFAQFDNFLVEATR
Procedure, shortened: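 Fluorogenic HMU-b-Gal hydrolysis (0.1 mM final, pH 5.2 citrate-phosphate with 1 mg/mL sodium taurocholate; carbonate stop buffer) measures mutant GALC activity after compound treatment of live 145M-Twi Twitcher brain cells stably carrying human GALC-G270D, with wild-type GALC line alongside; activation sought.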
Further: 0% is about no effect; nearly all actives have a fitted effect of over 65% in size.

activation, inactive:
O=C(CCC1N=C2c3ccccc3N=C(SCC(=O)Nc3ccc(F)cc3)N2C1=O)NCc1cccs1 (stereo not given) -15.6%
COC(=O)c1ccccc1NC(=O)C1CCCN(c2ncnc3onc(C)c23)C1 (stereo not given) -6.87%
Cc1ccc(CNC(=O)c2sc3nc4n(c(=O)c3c2C)CCCCC4)cc1 -9.94%
CCOC(=O)c1noc2ncnc(NCc3ccccc3OC)c12 -8.62%
COc1ccccc1N=C1SC(C(=O)Nc2ccccc2OC)CC(=O)N1C (stereo not given) -3%
COc1ccccc1NC(=O)CSC1=Nc2ccccc2C2=NC(CC(=O)NCc3ccc4c(c3)OCO4)C(=O)N12 (stereo not given) 5.24%
O=C(NCCOCCn1c(=O)oc2ccccc21)Nc1cccc(Cl)c1 -15.6%
COc1cc(OC)c(N(C)C(=O)c2cc3c(=O)oc4ccccc4c3s2)cc1Cl 1.22%
O=c1c2ccccc2n2c(-c3ccccc3F)nnc2n1CCc1ccccc1 -32.6%
Cc1ccc(C(=O)N(c2ccc(C)cc2)S(=O)(=O)c2ccc(Cl)cc2)cc1 -15.6%
Cc1ccc(-n2nc(C(=O)N(C)Cc3ccccc3)c3c4ccccc4n(C)c3c2=O)cc1 9.06%
CC(C)c1ccc(NC(=O)c2ccc3c(O)c(S(=O)(=O)c4ccccc4)c(=O)[nH]c3c2)cc1 -14.7%
Cc1ccc(NC(=O)C(Cc2ccccc2)N2Cc3ccccc3C2=O)cc1Cl (stereo not given) -18.1%
Cc1ccc(-n2c(=O)c3c(c4cc(C)ccc4n3C)n(Cc3ccc(F)cc3)c2=O)cc1 -4.12%
COc1ccc(C)cc1NC(=O)c1cc(S(=O)(=O)N2CCc3ccccc3C2)ccc1F -17.5%
CCCn1c(CCC(=O)Nc2ccc(C)c(Cl)c2)nc2cccnc21 -15.6%
Cc1oc(-c2ccc(C(=O)NCc3ccccc3Cl)cc2)nc1CN1CCc2ccccc21 -25%
CCCCNC(=O)CCn1c(=O)c2cccn2c2cccnc21 -4.34%
CCN(C(=O)c1c(C)oc2ncn(CC(C)C)c(=O)c12)c1cccc(Cl)c1 -2.08%
Cc1ccc(S(=O)(=O)C(CNC(=O)C(=O)NCCc2ccc(Cl)cc2)c2cccs2)cc1 (stereo not given) -3.5%
O=C(CC1N=C2c3ccccc3N=C(SCc3cccc(Cl)c3)N2C1=O)NCCc1ccccc1 (stereo not given) 1.02%
Cc1ccc(CCNC(=O)c2c[nH]c3ccc(S(=O)(=O)Nc4cccc(C(F)(F)F)c4)cc3c2=O)cc1 -13.5%
CCC1=C(c2ccc(C)cc2)S(=O)(=O)N=C1N1CCC(C(=O)NCCc2ccc(Cl)cc2)CC1 -15.7%
COc1ccc(CCNS(=O)(=O)c2cc(-c3onc(C)c3C)ccc2OC)cc1OC -7.86%
CCOc1ccc(CCNC(=O)c2ccc3c(c2)N(Cc2ccccc2F)C(=O)c2ccccc2S3=O)cc1OCC (stereo not given) -11.4%
O=C(CCS(=O)(=O)c1cc2c3c(c1)CCN3C(=O)CC2)Nc1cccc(Br)c1 -15.6%
CCCS(=O)(=O)N1CC(=O)N(c2ccc(C)cc2C)C(C)(C(=O)NC2CCCCCC2)C1 (stereo not given) 2.31%
O=C(Cn1c(=O)nc(-c2ccccc2)c2cc(Cl)ccc21)NCc1ccc(Cl)cc1 -5.23%
CCCCN(C)CCNC(=O)CN1C(=O)CSc2ccc(S(=O)(=O)N3CCCCC3)cc21 -9.94%
COc1ccccc1N1CCN(S(=O)(=O)CCNC(=O)Cc2ccc(Cl)cc2)CC1 -20.7%
O=c1c(S(=O)(=O)c2ccccc2)cn(Cc2cccc(F)c2)c2cc(N3CCCC3)c(F)cc12 -2.21%
Cc1ccc(C)c(Nc2nn3c(=O)c4cc5c(cc4nc3s2)OCO5)c1 -2.22%
CCc1ccc(NC(=O)CSc2nc(=O)n(Cc3ccncc3)c3c2CCC3)cc1 -10.8%
CCN1CCN(CCCNC(=O)Cn2c(-c3cccs3)cc3cc(F)ccc32)CC1 -9.39%
O=C(COCc1cc(-c2ccc3c(c2)OCO3)on1)Nc1cc(C(F)(F)F)ccc1Cl -17.7%
Cc1cc2c(cc1S(=O)(=O)CCC(=O)N1CCCCC1C)OCC(=O)N2 (stereo not given) 0.879%
CCOc1ccc(CCNC(=O)CSc2nnnn2-c2ccc(C)cc2C)cc1OCC -19.7%
CCOc1ccc(NC(=O)N(C)CCc2c(C)nn(C)c2C)cc1 -6.41%
O=C(NCC(c1cccnc1)N1CCc2ccccc21)c1ccc(F)cc1 (stereo not given) -14.1%
CCOC(=O)C1=C(CN(C)Cc2ccccc2)NC(=O)NC1c1ccc(OC)cc1 (stereo not given) -6.27%
CCCCOc1ccccc1C(=O)N(Cc1cccc(F)c1)C1CCS(=O)(=O)C1 (stereo not given) -14.8%
Cc1ccc(NC(=O)c2ccc(CNS(=O)(=O)c3ccc4c(c3)C(C)(C)C(=O)N4C)cc2)cc1F -9.17%
CCS(=O)(=O)c1ccccc1C(=O)Nc1ccc(-c2nc3ccccc3s2)cc1 -6.77%
CC(C)CCNC(=O)CN1C(=O)c2cccnc2Sc2ccccc21 -4.54%
CC(=O)c1cccc(NC(=O)Cc2noc3ccccc23)c1 4.74%
CCCCC(=O)NC1(C(F)(F)F)C(=O)Nc2c1c(=O)[nH]c(=O)n2-c1ccc(C)c(C)c1 (stereo not given) -11.2%
O=C(Nc1ccc2nc(SCCOc3ccccc3Cl)sc2c1)c1ccc2c(c1)OCO2 -2.58%
COc1ccc(CC(=O)Nc2cc(-c3cn4cccnc4n3)ccc2OC)cc1 6.34%
Cc1c(C(=O)N(Cc2ccco2)Cc2ccccc2Cl)oc2ccc(F)cc12 -8.45%
COc1cc(OC)c(NC(=O)C(Cc2ccccc2)NS(=O)(=O)c2cccc3nsnc23)cc1Cl (stereo not given) -24.9%
CN(C)c1ccc(NC(=O)CSc2nc3ccsc3c(=O)n2CCCCCC(=O)O)cc1 -9.14%
COc1ccc(OC(C)C(=O)NCc2nc(-c3cccc(C)c3)no2)cc1 (stereo not given) -19.3%
CCCCNC(=O)c1cnc2sc(N3CCCCCC3)nn2c1=O -12.6%
COc1ccc(C)cc1NC(=O)Nc1ccccc1OCc1cc(=O)n2ccccc2n1 -1.31%
Cc1ccccc1-c1noc(-c2ccc(N3CCN(C)CC3)c([N+](=O)[O-])c2)n1 -21.3%
Cc1cc(C)c(NC(=O)C(=O)NCC(c2cccnc2)N2CCN(Cc3ccccc3)CC2)c(C)c1 (stereo not given) -10.4%
COc1cccc(NC(=O)CSC2=Nc3ccccc3C3=NC(CC(=O)NCc4ccc5c(c4)OCO5)C(=O)N23)c1 (stereo not given) -7.67%
O=C(CSc1nc2nccnc2c(=O)n1CCc1c[nH]c2ccccc12)Nc1ccc(F)cc1 2.17%
COc1ccc(CC(=O)N(Cc2nc(-c3ccc(C)cc3)no2)C(C)C)cc1 -22.7%
COc1ccc2c(c1)c1c(c(=O)n(-c3ccccc3)c(=O)n1CC(=O)NCc1ccc(C)cc1)n2C -10.5%
